According to the supplement of paper PMC4166925:
± gives the standard deviation of the averaged measurements. Over roughly 33,000 sequences, “E-score (dimensionless, -0.5 to 0.5)” has its median near -0.046; the highest 2% begin near 0.36. Some of the results follow.

test system: T1, SpTbr T-box DNA-binding domain (GST fusion); experiment: PBM E-score of 8-mer (E-score (dimensionless, -0.5 to 0.5)); Tbr is Tbrain of the sea star Patiria miniata (Pm) or the sea urchin Strongylocentrotus purpuratus (Sp); higher = stronger binding preference; most listed sequences are background and not binding sites; conditions: the construct has about 5 more residues each side
T1 sequence: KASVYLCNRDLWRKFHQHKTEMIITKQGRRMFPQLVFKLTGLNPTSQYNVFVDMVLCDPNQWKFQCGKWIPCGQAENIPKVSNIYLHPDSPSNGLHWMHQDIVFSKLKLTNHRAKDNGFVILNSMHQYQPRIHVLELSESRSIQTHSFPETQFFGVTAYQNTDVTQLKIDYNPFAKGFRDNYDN
Experimental: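 Universal protein-binding microarray (Agilent AMADID 016060, 60-bp probes with a 35-bp variable region) incubated with 200 nM GST-fused Strongylocentrotus purpuratus Tbr T-box DNA-binding domain (residues 362-554) in PBS pH 7.5. Scored for every ungapped 8-mer (given with its reverse complement) as E-score (range -0.5 to 0.5; >0.45 counts as bound) and Z-score of median probe intensity. Two replicate arrays (datasets 1 and 2).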
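Further: protein at 200 nM in PBS on universal double-stranded arrays.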

| Sequence | PBM E-score of 8-mer |
| --- | --- |
| AAAAGGGT | -0.138 ± 0.12 |
| TCGGATAA | -0.214 ± 0.025 |
| TCTTATAA | -0.0607 ± 0.018 |
| ATCGCCGA | 0.117 ± 0.021 |
| AGTCCCCA | -0.166 ± 0.027 |
| CGCGTAAC | 0.148 ± 0.0036 |
| ATTAAAGC | -0.0839 ± 0.019 |
| TCACTCCA | 0.141 ± 0.017 |
| CAGCGCTC | -0.00268 ± 0.0042 |
| CGGTCAGA | -0.195 ± 0.057 |
| CTTCGCGA | 0.285 ± 0.032 |
| TCAGGTAA | 0.0384 ± 0.083 |
| AAATGGAC | -0.118 ± 0.026 |
| AGCAGTTC | -0.00386 ± 0.018 |
| CGTTATAA | 0.0844 ± 0.057 |
| ATCAGCCA | -0.0646 ± 0.0091 |
| TACGGGGA | -0.0682 ± 0.053 |
| AGGCCATC | -0.285 ± 0.022 |
| AGACTGTG | 0.0889 ± 0.054 |
| ATATCCGC | -0.00017 ± 0.072 |
| CAAAAAGG | -0.00362 ± 0.0023 |
| AGTTGTTC | 0.00852 ± 0.024 |
| CTAATGTC | 0.00498 ± 0.062 |
| GTACGGAA | -0.114 ± 0.015 |
| ATATCGGA | -0.0485 ± 0.032 |

| Sequence | PBM E-score of 8-mer |
| --- | --- |
| CAGCCTGG | -0.0718 ± 0.022 |
| TACCCGTA | -0.183 ± 0.051 |
| CTCCTACC | -0.133 ± 0.027 |
| CTCCATTC | -0.224 ± 0.03 |
| CACAGTAC | -0.0558 ± 0.017 |
| AAATCATT | -0.134 ± 0.1 |
| CTACGGTC | -0.269 ± 0.056 |
| CCCTTTTC | -0.0676 ± 0.12 |
| AGAATCCC | -0.102 ± 0.029 |
| CTCGGGGC | -0.258 ± 0.027 |
| CACAACAC | 0.3898 ± 0.0017 |
| CAGTCCGG | -0.197 ± 0.0023 |
| ATTGCTCC | -0.0861 ± 0.019 |
| GTATAGCA | -0.00131 ± 0.015 |
| CCTTCCAA | -0.1663 ± 0.0016 |
| CATAGGCG | 0.151 ± 0.051 |
| TACACCTA | 0.377 ± 0.0086 |
| GGGCAAAA | -0.132 ± 0.074 |
| ACGGGCAT | -0.182 ± 0.047 |
| GCTAGAGC | -0.0423 ± 0.028 |
| GCAGGGAC | -0.14 ± 0.03 |
| GAACGCTA | 0.0577 ± 0.012 |
| CCGGTGCC | -0.118 ± 0.027 |
| ACCTAGCC | -0.0606 ± 0.055 |
| AGGCTGTG | 0.189 ± 0.021 |

| Sequence | PBM E-score of 8-mer |
| --- | --- |
| ATGCCATC | -0.154 ± 0.041 |
| AACCCGGA | -0.16 ± 0.062 |
| ACGCGGTA | 0.178 ± 0.021 |
| GTTCAGTA | -0.202 ± 0.062 |
| GCATATAC | -0.081 ± 0.029 |
| CGTTATCC | -0.0209 ± 0.02 |
| AACAGACC | -0.0548 ± 0.02 |
| CAACTCTG | 0.225 ± 0.013 |
| CTCGGATC | -0.178 ± 0.045 |
| CCTGACCG | -0.0601 ± 0.0013 |
| AAAGATTT | -0.0898 ± 0.039 |
| CATTCGCC | -0.147 ± 0.039 |
| CCCAAAAA | -0.159 ± 0.064 |
| TAATCGTA | -0.048 ± 0.022 |
| TCCTGAGA | -0.253 ± 0.088 |
| AGAGGATC | -0.392 ± 0.012 |
| AAGTAATA | -0.27 ± 0.046 |
| CCAAGAAC | -0.0859 ± 0.048 |
| AGTTCAAT | -0.0516 ± 0.0057 |
| CCGCCTAC | -0.182 ± 0.053 |
| ACCTAATG | 0.0313 ± 0.041 |
| GCACACAC | 0.294 ± 0.035 |
| GTCCACAA | 0.153 ± 0.039 |
| TTAGCTAA | -0.00265 ± 0.075 |
| ACTACAAA | -0.0142 ± 0.015 |

| Sequence | PBM E-score of 8-mer |
| --- | --- |
| ATTGCGTG | 0.084 ± 0.026 |
| ACGATCCG | 0.0313 ± 0.051 |
| ACCACAAG | 0.0963 ± 0.0014 |
| CGGTCCGC | 0.0643 ± 0.093 |
| ATGTCGAG | 0.0154 ± 0.069 |
| GGTCGAGA | -0.184 ± 0.033 |
| ATTAGATC | -0.194 ± 0.071 |
| GCAAGCTA | -0.0994 ± 0.048 |
| CACCTACA | 0.371 ± 0.014 |
| AACTGACT | -0.141 ± 0.043 |
| GCGTACAC | -0.104 ± 0.027 |
| ATCGGATG | -0.0522 ± 0.041 |
| CTTGCAGC | 0.0211 ± 0.097 |
| AACGTAAG | -0.0124 ± 0.092 |
| GATTCTGA | -0.173 ± 0.037 |
| ATCTTTAC | -0.114 ± 0.069 |
| CAATACTG | -0.127 ± 0.0078 |
| TTGAAAAA | -0.0577 ± 0.027 |
| AAAGTCTT | -0.152 ± 0.062 |
| ACTCTACT | 0.00872 ± 0.0077 |
| ACGACGAA | -0.00509 ± 0.037 |
| AGAGAAGA | -0.16 ± 0.011 |
| CCCCCAGA | -0.224 ± 0.0064 |
| ATTGCGTC | -0.174 ± 0.089 |
| CACCCAAC | 0.257 ± 0.028 |

| Sequence | PBM E-score of 8-mer |
| --- | --- |
| AACTTATG | -0.262 ± 0.033 |
| CGTAATTC | -0.172 ± 0.019 |
| ATAAGCTA | -0.1 ± 0.014 |
| CGCCAGTC | 0.104 ± 0.048 |
| ACTTGCAG | 0.147 ± 0.021 |
| CTTAACCC | -0.000625 ± 0.011 |
| ACCTACTC | -0.00154 ± 0.02 |
| AGCCGGCC | -0.138 ± 0.033 |
| AAGTCAGA | -0.152 ± 0.044 |
| CACGGTCA | -0.0942 ± 0.082 |
| AAGCTTGA | -0.11 ± 0.042 |
| AGTATGTC | 0.0771 ± 0.044 |
| GCCCAAAC | -0.357 ± 0.018 |
| GAAATATC | 0.0425 ± 0.043 |
| AGGTAACT | -0.165 ± 0.028 |
| CCTCAAGA | -0.0881 ± 0.046 |
| AAAGAGAA | -0.198 ± 0.041 |
| CCCTTTCC | -0.2 ± 0.064 |
| ACCAACAA | 0.0687 ± 0.00095 |
| TCAACGAA | 0.0106 ± 0.045 |
| ATGGCCAG | -0.362 ± 0.012 |
| AGCGAAAA | -0.0276 ± 0.011 |
| GTATGCCA | -0.0832 ± 0.062 |
| ACTTTCCC | -0.0292 ± 0.0071 |
| CTTGTTTA | -0.114 ± 0.071 |

| Sequence | PBM E-score of 8-mer |
| --- | --- |
| AACGCGGT | -0.0462 ± 0.038 |
| CAATCTTA | -0.0254 ± 0.06 |
| ACCTTGCA | -0.0177 ± 0.044 |
| CCGTGATC | 0.15 ± 0.011 |
| ACCAGCGG | 0.0935 ± 0.055 |
| ACATGGCT | -0.128 ± 0.04 |
| ATGGATTA | -0.151 ± 0.0019 |
| CCTCATAA | -0.0692 ± 0.021 |
| AGTTGGTG | 0.125 ± 0.031 |
| GCGGCGAC | 0.141 ± 0.006 |
| ACAACCAC | 0.0825 ± 0.069 |
| CCACCGGA | -0.22 ± 0.017 |
| ATCATTGC | -0.206 ± 0.041 |
| AGACAAGC | -0.0247 ± 0.089 |
| CTTCGGAC | -0.0546 ± 0.019 |
| TGATACCA | -0.0856 ± 0.013 |
| GAGAGATC | -0.00216 ± 0.088 |
| AATTGGGT | 0.0374 ± 0.037 |
| TCGATGCA | -0.245 ± 0.018 |
| AAATCGAC | 0.0255 ± 0.034 |
| AAACGCTC | -0.234 ± 0.14 |
| CGTAGCAC | 0.197 ± 0.0064 |
| ATCGCCCA | -0.00832 ± 0.071 |
| CTGACGTC | -0.106 ± 0.12 |
| AGCCGGCG | 0.0102 ± 0.074 |

| Sequence | PBM E-score of 8-mer |
| --- | --- |
| ACACGACA | 0.197 ± 0.02 |
| TCCGTAAA | 0.048 ± 0.012 |
| GTAGAGCA | -0.195 ± 0.016 |
| CCCTCGGA | -0.302 ± 0.013 |
| CAGGCCGA | -0.0618 ± 0.018 |
| ACAACGAT | -0.00065 ± 0.016 |
| CTTCTCAC | 0.401 ± 0.011 |
| CGACCCAG | -0.116 ± 0.039 |
| TCTGACCA | -0.263 ± 0.012 |
| CCTCGCAC | 0.396 ± 0.032 |
| ACTCTGGG | -0.134 ± 0.047 |
| AGCGCTCG | 0.101 ± 0.14 |
| CAAGCTGA | -0.133 ± 0.028 |
| CTTCCTTA | -0.0224 ± 0.0045 |
| CCCTGTGC | -0.0572 ± 0.048 |
| GATGTTGA | 0.0152 ± 0.026 |
| GGGGTTTA | -0.00105 ± 0.0085 |
| ACCCTACT | 0.0703 ± 0.013 |
| AAGGGGCA | -0.297 ± 0.042 |
| ATTATGGA | -0.129 ± 0.051 |
| AAATGGGT | 0.065 ± 0.014 |
| CTGATCTC | -0.00624 ± 0.016 |
